The supplement of paper PMC4604168 (melanoma cell lines)
This is one part of the list. Single values are uncertain, as repeats are few or missing.

Test system: A2058
Experiment: cell count relative to DMSO control; melanoma cells; higher = more viable cells
Conditions: library dose: standard library concentration; 72 h
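Note: cells treated in 1,536-well plates, then fixed and DAPI-stained, with nuclei counted from automated high-throughput microscope images.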

| SMILES | cell count [%] |
| --- | --- |
| Cc1nc(Nc2ncc(C(=O)Nc3c(C)cccc3Cl)s2)cc(N2CCN(CCO)CC2)n1 [dasatanib] + Cc1cc(SCc2sc(-c3ccc(C(F)(F)F)c(F)c3)nc2C)ccc1OCC(=O)O [GW0742] (first compound 0.02 µM, partner dose 10 µM) | 75.7 |
| Oc1cc(-c2nc(-c3ccccc3)[nH]c2-c2ccncc2)ccc1Cl + O=C(Oc1ccc([N+](=O)[O-])cc1)N1CCC(C(O)(c2ccc3c(c2)OCO3)c2ccc3c(c2)OCO3)CC1 [JZL184] (first compound 1 µM, partner dose 5 µM) | 89.8 |
| O=C(O)C(=O)Nc1sc2c(c1C(=O)O)CCNC2 + C/C(O)=C(\C#N)C(=O)Nc1cc(Br)ccc1Br [LFM-A13] (first compound 8.33333 µM, partner dose 10 µM) | 108 |
| O=C(O)c1ccc2c(c1)nc(Nc1cccc(Cl)c1)c1ccncc12 + Cc1cc(SCc2sc(-c3ccc(C(F)(F)F)c(F)c3)nc2C)ccc1OCC(=O)O [GW0742] (first compound 2 µM, partner dose 10 µM) | 85.1 |
| COCC[n+]1c2c(n(Cc3cnccn3)c1C)C(=O)c1ccccc1C2=O + C/C(O)=C(\C#N)C(=O)Nc1cc(Br)ccc1Br [LFM-A13] (first compound 0.002 µM, partner dose 10 µM) | 31.3 |
| CN1CCN(c2ccc3nc(-c4c(N)c5c(F)cccc5[nH]c4=O)[nH]c3c2)CC1 [Dovitinib] + O=C(Oc1ccc([N+](=O)[O-])cc1)N1CCC(C(O)(c2ccc3c(c2)OCO3)c2ccc3c(c2)OCO3)CC1 [JZL184] (first compound 0.5 µM, partner dose 5 µM) | 23.1 |
| Nc1ccn([C@@H]2O[C@H](CO)[C@@H](O)C2(F)F)c(=O)n1 [gemcitabine] + C/C(O)=C(\C#N)C(=O)Nc1cc(Br)ccc1Br [LFM-A13] (first compound 0.002 µM, partner dose 10 µM) | 67.1 |
| C#Cc1cccc(Nc2ncnc3cc(OCCOC)c(OCCOC)cc23)c1 [erlotinib] + C/C(O)=C(\C#N)C(=O)Nc1cc(Br)ccc1Br [LFM-A13] (first compound 4 µM, partner dose 10 µM) | 94.6 |
| Cc1nc(Nc2ncc(C(=O)Nc3c(C)cccc3Cl)s2)cc(N2CCN(CCO)CC2)n1 [dasatanib] + C/C(O)=C(\C#N)C(=O)Nc1cc(Br)ccc1Br [LFM-A13] (first compound 0.02 µM, partner dose 10 µM) | 78.8 |
| CO[C@H]1C[C@@H]2CC[C@@H](C)[C@@](O)(O2)C(=O)C(=O)N2CCCC[C@H]2C(=O)O[C@H]([C@H](C)C[C@@H]2CC[C@@H](OCCO)[C@H](OC)C2)CC(=O)[C@H](C)/C=C(\C)[C@@H](O)[C@@H](OC)C(=O)[C@H](C)C[C@H](C)/C=C/C=C/C=C/1C [everolimus] + C/C(O)=C(\C#N)C(=O)Nc1cc(Br)ccc1Br [LFM-A13] (first compound 0.1 µM, partner dose 10 µM) | 66.5 |
| O=C1NC(=O)/C(=C/c2ccc(-c3ccc(F)cc3O)o2)S1 + O=C(Oc1ccc([N+](=O)[O-])cc1)N1CCC(C(O)(c2ccc3c(c2)OCO3)c2ccc3c(c2)OCO3)CC1 [JZL184] (first compound 5 µM, partner dose 5 µM) | 102 |
| COc1ccc(COc2ccc(Cc3cnc(N)nc3N)cc2OC)cc1 + C/C(O)=C(\C#N)C(=O)Nc1cc(Br)ccc1Br [LFM-A13] (first compound 5 µM, partner dose 10 µM) | 112 |
| Oc1cc(-c2nc(-c3ccccc3)[nH]c2-c2ccncc2)ccc1Cl + C/C(O)=C(\C#N)C(=O)Nc1cc(Br)ccc1Br [LFM-A13] (first compound 1 µM, partner dose 10 µM) | 92.1 |
| Oc1nc(-c2ccc(C(F)(F)F)cc2)nc2c1CSCC2 + O=C(Oc1ccc([N+](=O)[O-])cc1)N1CCC(C(O)(c2ccc3c(c2)OCO3)c2ccc3c(c2)OCO3)CC1 [JZL184] (first compound 10 µM, partner dose 5 µM) | 88.1 |
| CN1CCN(c2ccc3nc(-c4c(N)c5c(F)cccc5[nH]c4=O)[nH]c3c2)CC1 [Dovitinib] + C/C(O)=C(\C#N)C(=O)Nc1cc(Br)ccc1Br [LFM-A13] (first compound 0.5 µM, partner dose 10 µM) | 31.9 |
| O=C(CCCCCCC(=O)Nc1ccccc1)NO [vorinostat] + Cc1cc(SCc2sc(-c3ccc(C(F)(F)F)c(F)c3)nc2C)ccc1OCC(=O)O [GW0742] (first compound 0.4 µM, partner dose 10 µM) | 84.1 |
| COc1ccc(COc2ccc(Cc3cnc(N)nc3N)cc2OC)cc1 + Cc1cc(SCc2sc(-c3ccc(C(F)(F)F)c(F)c3)nc2C)ccc1OCC(=O)O [GW0742] (first compound 5 µM, partner dose 10 µM) | 93.7 |
| Cc1cc(Nc2cc(N3CCN(C)CC3)nc(Sc3ccc(NC(=O)C4CC4)cc3)n2)n[nH]1 [Tozasertib] + O=C(Oc1ccc([N+](=O)[O-])cc1)N1CCC(C(O)(c2ccc3c(c2)OCO3)c2ccc3c(c2)OCO3)CC1 [JZL184] (first compound 0.03 µM, partner dose 5 µM) | 80.1 |
| Cn1c(Nc2ccc(C(F)(F)F)cc2)nc2cc(Oc3ccnc(-c4ncc(C(F)(F)F)[nH]4)c3)ccc21 + O=C(Oc1ccc([N+](=O)[O-])cc1)N1CCC(C(O)(c2ccc3c(c2)OCO3)c2ccc3c(c2)OCO3)CC1 [JZL184] (first compound 0.4 µM, partner dose 5 µM) | 73 |
| O=C(CCCCCCC(=O)Nc1ccccc1)NO [vorinostat] + C/C(O)=C(\C#N)C(=O)Nc1cc(Br)ccc1Br [LFM-A13] (first compound 0.4 µM, partner dose 10 µM) | 98.8 |
| Cn1c(Nc2ccc(C(F)(F)F)cc2)nc2cc(Oc3ccnc(-c4ncc(C(F)(F)F)[nH]4)c3)ccc21 + C/C(O)=C(\C#N)C(=O)Nc1cc(Br)ccc1Br [LFM-A13] (first compound 0.4 µM, partner dose 10 µM) | 59.3 |
| C=CCn1c(=O)c2cnc(Nc3ccc(N4CCN(C)CC4)cc3)nc2n1-c1cccc(C(C)(C)O)n1 + O=C(Oc1ccc([N+](=O)[O-])cc1)N1CCC(C(O)(c2ccc3c(c2)OCO3)c2ccc3c(c2)OCO3)CC1 [JZL184] (first compound 0.1 µM, partner dose 5 µM) | 88.2 |
| CC(C)C[C@H](NC(=O)[C@H](Cc1ccccc1)NC(=O)c1cnccn1)B(O)O [Bortezomib] + O=C(Oc1ccc([N+](=O)[O-])cc1)N1CCC(C(O)(c2ccc3c(c2)OCO3)c2ccc3c(c2)OCO3)CC1 [JZL184] (first compound 0.005 µM, partner dose 5 µM) | 16 |
| Clc1ccc(Nc2nnc(Cc3ccncc3)c3ccccc23)cc1 [vatalanib] + O=C(Oc1ccc([N+](=O)[O-])cc1)N1CCC(C(O)(c2ccc3c(c2)OCO3)c2ccc3c(c2)OCO3)CC1 [JZL184] (first compound 10 µM, partner dose 5 µM) | 94.2 |
| COc1cc2ncnc(Nc3ccc(Oc4ccccc4)cc3)c2cc1OC + O=C(Oc1ccc([N+](=O)[O-])cc1)N1CCC(C(O)(c2ccc3c(c2)OCO3)c2ccc3c(c2)OCO3)CC1 [JZL184] (first compound 10 µM, partner dose 5 µM) | 94 |
| C=CCn1c(=O)c2cnc(Nc3ccc(N4CCN(C)CC4)cc3)nc2n1-c1cccc(C(C)(C)O)n1 + Cc1cc(SCc2sc(-c3ccc(C(F)(F)F)c(F)c3)nc2C)ccc1OCC(=O)O [GW0742] (first compound 0.1 µM, partner dose 10 µM) | 87.5 |
| Nc1ccn([C@@H]2O[C@H](CO)[C@@H](O)C2(F)F)c(=O)n1 [gemcitabine] + O=C(Oc1ccc([N+](=O)[O-])cc1)N1CCC(C(O)(c2ccc3c(c2)OCO3)c2ccc3c(c2)OCO3)CC1 [JZL184] (first compound 0.002 µM, partner dose 5 µM) | 52.1 |
| COc1cc(N2CCC(N3CCN(C)CC3)CC2)ccc1Nc1ncc(Cl)c(Nc2ccccc2S(=O)(=O)C(C)C)n1 + O=C(Oc1ccc([N+](=O)[O-])cc1)N1CCC(C(O)(c2ccc3c(c2)OCO3)c2ccc3c(c2)OCO3)CC1 [JZL184] (first compound 0.4 µM, partner dose 5 µM) | 51.3 |
